# Data published in PubChem BioAssay AID463173 (ICCB-Longwood Screening Facility, Harvard Medical School, 2010).
# In all, about 52,000 compounds went through this assay and about 1,700 (3.3%) were called active. Cut-off read from the data, not from the text of the source: active = survival mostly below about 52% (no sharp cut-off); inactive = mostly above about 56%. Some of the results follow.
# Test system: Wild type
# Test: growth inhibition of S. aureus wild type versus tarO mutant, primary screen, teichoic acid synthesis inhibitors, RN4220, OD600 (AID 463173)
# Conditions: S. aureus RN4220 wild type/DeltatarO growth, OD600, 18 h, hits give low values, screened at 18.75 µg/mL (by protocol)
row,Compound,survival
1,CCc1ccc(S(=O)(=O)c2nnn3c2nc(N2CCCC(C)C2)c2cc(Cl)ccc23)cc1 (configuration not stated),inactive: 81%
2,COc1ccc2nc(N3CCN(C(=O)c4ccco4)CC3)sc2c1,inactive: 92%
3,COc1ccc(OC)c(CNC(=O)C2COc3ccccc3C2)c1 (configuration not stated),inactive: 91%
4,CCOC(=O)Cc1ccc(NC(=O)N2CC(CC)Oc3ccccc32)cc1 (configuration not stated),inactive: 80%
5,COc1ccc(-c2nc3cccc(C)n3c2NC(C)(C)C)cc1O,inactive: 122%
6,NC(N)=N/N=C/c1ccco1,inactive: 114%
7,COc1cccc(Cn2cc(S(=O)(=O)c3ccc(C)cc3)c(=O)c3cc4c(cc32)OCO4)c1,inactive: 85%
8,COc1ccc(NC(=O)c2ccco2)cc1NC(=O)COc1ccc(C)cc1C,inactive: 86%
9,O=C(Nc1nonc1-c1ccc(Br)cc1)c1ccco1,inactive: 76%
10,Cc1nc2ccccc2n1CCc1nc2c3ccccc3nc(SCC(=O)Nc3ccc(C(C)C)cc3)n2n1,inactive: 68%
11,CC1CC(C(F)F)n2nc(C(=O)Nc3sc4c(c3C#N)CCC(C(C)(C)C)C4)nc2N1 (configuration not stated),inactive: 101%
12,Clc1ccc(CSc2nc3ncccc3[nH]2)cc1,inactive: 79%
13,Cc1ccc(NC(=O)Cc2ccc(NC(=O)N3CCCCc4ccccc43)cc2)cc1,inactive: 71%
14,CCCc1ccc(NC(=O)C2CCN(c3cnccn3)CC2)cc1,inactive: 98%
15,Cc1cc(Cl)ccc1NC(=O)CN1C(=O)C(=O)c2ccccc21,inactive: 74%
16,O=C(Nc1cccc(S(=O)(=O)c2cccc(NC(=O)c3ccco3)c2)c1)c1ccco1,inactive: 124%
17,Cc1ccc(NCc2n[nH]c(=S)n2C)cc1Cl,inactive: 104%
18,CCOc1ccc(C(=O)O)o1,inactive: 100%
19,O=C(O)CSc1nc2c(c(C(F)(F)F)n1)CCc1ccccc1-2,inactive: 101%
20,CCN1CCN(C(c2ccccc2)c2c(O)cc(C)n(CCOC)c2=O)CC1 (configuration not stated),inactive: 91%
21,Cc1csc(-c2coc3cc(O)cc(C)c3c2=O)n1,inactive: 87%
22,COCCCNc1cc(C)nc2ccccc12,inactive: 121%
23,COc1ccc(S(=O)(=O)Cc2ccc(C(=O)NC3CCCCC3)o2)cc1,inactive: 124%

row,Compound,survival
1,COC(=O)Cn1cnc2c1c(=O)n(C)c(=O)n2C,inactive: 118%
2,CCCCC(=O)Nc1ccc(C(=O)OCc2cc(=O)n3nc(C4CC4)sc3n2)cc1,inactive: 119%
3,COC(=O)C1=C(c2ccccc2)c2ccccc2S(=O)(=O)N1CC(=O)Nc1ccccc1C(F)(F)F,inactive: 65%
4,Cc1cccc(N2CCN(c3ccc(C(=O)O)cc3NC(=O)c3ccccc3F)CC2C)c1 (configuration not stated),inactive: 69%
5,Cn1c(=O)n(CCc2ccccc2)c(=O)c2c1nc1n2CCN1c1ccc(Cl)cc1,inactive: 85%
6,CC(C(=O)Nc1ccccc1C(F)(F)F)n1nc(-c2ccccc2)c2c(c1=O)CCCC2 (configuration not stated),inactive: 69%
7,COc1cc(SC#N)ccc1N=Cc1c(O)n(-c2cccc(C)c2)c(=O)[nH]c1=O,inactive: 102%
8,Cc1cc(C)c2c(-n3cccc3)c(C(=O)NCCc3ccccc3)sc2n1,inactive: 86%
9,CCN(CC)c1ccc(C(=O)NCc2ccc3c(c2)CCN3C(C)=O)cc1,inactive: 68%
10,CC(C)CC(=O)Nc1c(C(=O)N2CCN(c3ccccc3F)CC2)oc2ccccc12,inactive: 82%
11,COC(=O)c1c(O)c[nH]c1C,inactive: 110%
12,CC(=O)c1ccc(N2CCN(C(=O)Nc3cccc(F)c3)CC2)cc1,inactive: 79%
13,CC(C)Oc1ccc(CNC(=O)CCCn2c(=O)c3cccn3c3cccnc32)cc1,inactive: 111%
14,COc1cccc(-c2nnc3n(Cc4ccccc4Cl)c(=O)c4ccccc4n23)c1O,inactive: 86%
15,O=C(NCc1ccc2c(c1)CCN2C(=O)c1ccncc1)c1ccc(Cl)cc1,inactive: 78%
16,Cc1c(Cl)cccc1NC(=O)CN1C(=O)CCn2nc(-c3cccn3C)cc21,inactive: 76%
17,Cc1ccc(S(=O)(=O)Nc2c(C)nn(C)c2C)cc1,inactive: 93%
18,COCCN(CCOC)C(=O)c1cc2c(=O)n3ccccc3nc2n1C,inactive: 84%
19,COc1cc(-c2nc3ccc(C)cn3c2Nc2ccc(Cl)cc2)ccc1O,inactive: 75%
20,COc1cccc(C(=O)NC2=NC(c3ccc(N(C)C)cc3)CC(=O)N2)c1 (configuration not stated),inactive: 64%
21,O=C(CSc1nc(-c2ccccc2)cn1-c1ccccc1)Nc1ccccc1,inactive: 68%
22,CCn1c(NCc2cccc(Cl)c2)nc2ccccc21,inactive: 97%
23,O=C(NCCCN1CCCCC1)c1cc(Sc2ccc(Cl)cc2)nc2ccccc12,active: -1%

row,Compound,survival
1,Cc1ccc(Cn2c(C(=O)O)c(CNCCc3ccco3)c3ccc(C)cc32)cc1,inactive: 82%
2,Cc1cc(C)c(C(=O)Nc2ccccc2)c(SCC(=O)Nc2ccc(Br)cc2C)n1,inactive: 72%
3,O=C1C2C3C=CC(C3)C2C(=O)N1CN(Cc1ccccc1)CN1C(=O)C2C3C=CC(C3)C2C1=O (configuration not stated),inactive: 113%
4,COc1ccc(-n2c(=O)c3ccc(C(=O)NCc4ccc(C)cc4)cc3n(CC(=O)Nc3ccc(C)cc3)c2=O)cc1,inactive: 77%
5,O=S(=O)(c1ccc(Br)cc1)c1nnn2c1nc(NCc1cccs1)c1sccc12,inactive: 75%
6,CC(=O)c1ccc(N2CCN(C3C(=O)c4ccccc4N3C(C)=O)CC2)cc1 (configuration not stated),inactive: 68%
7,COc1ccc(-c2cc(C(=O)NCCc3ccccc3)c3cc(C(C)C)ccc3n2)cc1,inactive: 71%
8,COc1ccc(-n2cc(C(=O)NCc3cccc(OC)c3)c3ccccc3c2=O)cc1,inactive: 111%
9,CC(=O)N/N=C/c1ccc(C)c(C)c1C,inactive: 107%
10,CCOc1cc(-c2nc(-c3ccc(-c4ccc(OC)cc4)nc3OC)no2)cc(OCC)c1OCC,inactive: 59%
11,COCCCNC(=O)C1CCN(c2cc(C)nc3c(-c4ccc(OC)c(OC)c4)c(C)nn23)CC1,inactive: 82%
12,COc1ccc(Cl)cc1NC(=O)c1nn(C)c2c1CS(=O)(=O)c1ccccc1-2,inactive: 83%
13,COc1ccc2nc(NC(=O)c3ccc(S(=O)(=O)N4CCCC(C)C4)cc3)sc2c1 (configuration not stated),inactive: 75%
14,O=C(CN1CCC(N2CCCCC2)CC1)c1ccc(F)cc1,inactive: 110%
15,O=C(CSc1nc(=O)n(Cc2ccco2)c2c1CCC2)NCc1ccc(F)cc1,inactive: 70%
16,CC1=C(C(=O)Nc2ccccc2C)C(c2ccccn2)n2nc(SCc3ccccc3F)nc2N1 (configuration not stated),inactive: 75%
17,CCc1ccc(NC(=O)CSc2nc(=O)n(Cc3ccco3)c3c2CCC3)cc1,inactive: 73%
18,Cc1nc2nc(NC(=O)c3ccc(Cl)cc3)[nH]n2c(=O)c1Cc1ccccc1,inactive: 93%
19,N/C(=N\OC(=O)c1cccs1)c1ccccc1,inactive: 105%
20,Cc1ccc(S(=O)(=O)c2nnn3c2nc(N2CCN(c4ccccc4F)CC2)c2ccccc23)cc1C,inactive: 73%
21,O=c1[nH]c(SCc2ccc(Br)cc2)nc2c1CCCC2,inactive: 83%
22,CC(NC(=O)Cn1c(-c2cccs2)cc2cc(F)ccc21)c1ccccc1 (configuration not stated),inactive: 67%
23,O=C(NC1CC(=O)N(c2ccc(Cl)cc2)C1)c1cccs1 (configuration not stated),inactive: 70%

row,Compound,survival
1,CCC(C)NC(=O)c1c(-c2ccccc2)c(-c2ccccc2)nn(C)c1=O (configuration not stated),inactive: 88%
2,O=C(Cn1c(=O)n(Cc2ccc3c(c2)OCO3)c(=O)c2ccc(C(=O)NC3CCCCC3)cc21)Nc1ccccc1F,inactive: 64%
3,COc1ccc(-c2cc(C(=O)Oc3ccc(C)c(C)c3)c3ccccc3n2)cc1,inactive: 30%
4,Cc1cccn2c(=O)c3cc(C(=O)NCc4ccccc4Cl)sc3nc12,inactive: 81%
5,CC(C)(C)C(=O)CSc1nc2ccccc2[nH]1,inactive: 113%
6,CCOC(=O)c1cc(-c2ccccc2)n(CCCC(=O)Nc2ccc(C)cc2C)c1C,inactive: 66%
7,Cc1ccc(C(=O)NC2(C(F)(F)F)C(=O)Nc3c2c(=O)[nH]c(=O)n3CCc2ccccc2)cc1 (configuration not stated),inactive: 82%
8,Oc1cccc(Nc2ncnc3sc4c(c23)CCCC4)c1,inactive: 65%
9,CS(=O)(=O)N1CCc2cc(C(=O)NCc3ccccc3)ccc21,inactive: 85%
10,CCc1c(C)nc2ncnn2c1N1CCC(C(=O)Nc2ccccc2)CC1,inactive: 104%
11,Cc1c(C(=O)N2CCC(C(=O)Nc3ccc(F)cc3)CC2)sc2nc[nH]c(=O)c12,inactive: 83%
12,Cc1cccc(-n2c3nc(=O)n(C)c(=O)c-3cc3ccc(Cl)cc32)c1C,inactive: 82%
13,Cc1noc2ncnc(NCc3cccc(Cl)c3)c12,inactive: 113%
14,CC(C)(C)C(=O)N1CCN(c2nc3c(F)cccc3s2)CC1,inactive: 72%
15,CCOc1ccc(-n2c(SCC(=O)N3CCCCC3)nc3c([nH]c4ccccc43)c2=O)cc1,inactive: 94%
16,N#Cc1ccccc1/C=C/C(=O)N(CCO)CC(O)c1ccccc1 (configuration not stated),inactive: 100%
17,COc1cc(C(=O)Nc2ccc3nc(SCc4ccc(C)cc4)sc3c2)cc(OC)c1OC,inactive: 113%
18,CCOc1ccc(-n2c(SCC(=O)N3CCOCC3)nc3c([nH]c4ccccc43)c2=O)cc1,active: -3%
19,CC(C)(C)OC(=O)N1CCC(c2c(C(=O)N3CCN(C(=O)c4ccco4)CC3)cnn2-c2cccc(F)c2)CC1,inactive: 80%
20,CCCC(=O)N1CCN(c2nc3c(OC)ccc(C)c3s2)CC1,active: 14%
21,CC(=O)c1ccc(S(=O)(=O)Nc2cccc(-c3ccc(N4CCCCCC4)nn3)c2)cc1,inactive: 99%
22,CCN(c1ccccc1)S(=O)(=O)c1nnc(NC(=O)c2cccs2)s1,inactive: 47%
23,Cc1ccc(C)c(Nc2nnc(-n3nc(C)cc3C)c3ccccc23)c1,inactive: 80%
